# From PubChem BioAssay AID686978 (National Center for Advancing Translational Sciences (NCATS), 2013)
# Several values for one entry are separate records, joined by “and”; a condition that tells them apart may be missing. Identical values can stand only once. Screen size: about 420,000 compounds; about 64,000 (15%) were called active. The shares of active, inactive and inconclusive entries below differ from those in the screen. Calls come from the whole dose curve; as a rule, active = well fitted inhibition curve with a large enough effect; inconclusive = small, poorly fitted or top-dose-only effect; inactive = flat fitted curve, though single readings scatter. Potencies of inconclusive entries are doubtful fits and often do not repeat.
# Assay: qHTS for Inhibitors of human tyrosyl-DNA phosphodiesterase 1 (TDP1): qHTS in cells in absence of CPT; note: nearly all actives have a fitted effect of over 55% in size
# Details: DT40 Tdp1-/- hTDP1 cells, no CPT, ATP luminescence, 48 h; activity change, negative = growth inhibition: at 46.2 µM (top of the series) unless noted
# How it was run: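 Compound effects on proliferation are scored in DT40 Tdp1-/-;hTDP1 cells in the absence of CPT. ATP levels (CellTiter-Glo luminescence) are recorded after a ≥48 hr, 37 °C incubation.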
# % is set by controls: 0 for no effect and ±100 for the full control effect; potency is the fitted concentration of half-maximal effect; tags give direction and shape of the fitted curve.
Compound,Potency,"activity change, negative = growth inhibition"
CC(C)C[C@@H](N)C(=O)O,inactive,–
CC(C)N(Cc1nc(-c2ccccc2)no1)C(=O)CN(C)S(=O)(=O)c1ccccc1,inactive,–
COc1ccc(-c2cc([C@H]3[C@@H]4C=CCC[C@@]4(C)C(=O)N3Cc3ccccc3)ccc2F)cc1,active: 25.9 µM,–
COc1ccccc1C(=O)Nc1ccccc1C(=O)NCc1ccco1,"inconclusive: 29.1 µM [inhibitor, single point]",–
Oc1ccccc1C=NN=Cc1c(O)ccc2ccccc12,"inconclusive: 29.1 µM [inhibitor, single point]",–
O=C1N/C(=N/O)S/C1=C/c1cccc([N+](=O)[O-])c1,inactive,–
N#Cc1c(NC(=O)CSc2nc3ccccc3s2)sc2c1CCCC2,"inconclusive: 29.1 µM [inhibitor, single point]",–
Cc1ccc(-c2nnn3c2nc(N2CCC(C)CC2)c2ccccc23)cc1,inactive,–
COc1ccccc1NS(=O)(=O)c1cc(NC(=O)Nc2ccc(Cl)cc2Cl)ccc1N1CCCCC1,"inconclusive: 29.1 µM [inhibitor, single point]",–
O=[N+]([O-])c1ccc(S(=O)(=O)CC(CN2CCOCC2)N2CCOCC2)cc1 (configuration not stated),"inconclusive: 29.1 µM [inhibitor, single point]",–
O=C(CSc1ncc2c(n1)-c1cc(Cl)ccc1N(Cc1ccccc1)S2(=O)=O)NCc1ccccc1,"inconclusive: 29.1 µM [inhibitor, single point]",–
COc1ccccc1NC(=O)CCn1c(=S)oc2ccccc21,inactive,–
O=C(c1ccc(S(=O)(=O)N2CCCCC2)cc1)N(c1ccccn1)C1CCCCC1,"inconclusive: 20.6 µM [inhibitor, single point]",–
O=C(CCCO)N/N=C/c1cc(Br)ccc1O,"inconclusive: 23.1 µM [inhibitor, single point]",–
Fc1ccc(Nc2c(-c3c[nH]c4ccccc34)nc3ccccn23)cc1,active: 20.6 µM,–
O=[N+]([O-])c1ccc(COc2ccccc2CN2CCOCC2)cc1,"inconclusive: 25.9 µM [inhibitor, single point]",–
O=C(NCCN1CCOCC1)c1cc(-c2cccs2)nc2ccccc12,inactive,–
CCOc1ccc(Cc2c(Cl)nc(SC)nc2N(C)C)cc1,active: 16.4 µM,–
CCOc1ccc(S(=O)(=O)NCCc2csc3nc(-c4cccc(C)c4)nn23)cc1,active: 18.4 µM,–
CC1=C/C(=N\OS(=O)(=O)c2ccccc2)C=CC1=O,active: 1 µM,–
COCCn1c(SCc2ccc(Cl)cc2)nc2c1c(=O)[nH]c(=O)n2C,"inconclusive: 13 µM [inhibitor, partial curve]",–
COc1ccccc1CNC(=O)C12CC3CC(CC(C3)C1)C2,"inconclusive: 18.4 µM [inhibitor, partial curve, poor fit]",–
CC(CNC(=O)C1CCCCC1C(=O)O)c1ccccc1 (configuration not stated),inactive,–
CC(C)Nc1ccc(C(CC(N)=O)NC(=O)Cc2ccc(Br)cc2)cc1[N+](=O)[O-] (configuration not stated),active: 20.6 µM,–

Compound,Potency,"activity change, negative = growth inhibition"
CCc1noc(C)c1C(=O)N1CCN(S(=O)(=O)c2c(C)c(C)cc(C)c2C)CC1,"inconclusive: 20.6 µM [inhibitor, single point]",–
COC(=O)c1sc(NC(=O)c2csc3c2CCCC3)nc1C,active: 23.1 µM,–
Cc1cc(C)c2nc(C(F)(F)F)nc(N3CCN(C(=O)c4ccco4)CC3)c2c1,"inconclusive: 29.1 µM [inhibitor, single point]",–
O=C(COc1ccc(Cl)cc1Cl)NC(=O)NC1CCCC1,–,inconclusive: -33.4% [inhibitor]
CCCN(CC(=O)Nc1ccccc1OC)C(=O)CCC(=O)c1ccc(OCC)cc1,"inconclusive: 29.1 µM [inhibitor, single point]",–
COCc1cc(C)nc(OCC(=O)N/N=C/c2ccc(-c3cc([N+](=O)[O-])ccc3Cl)o2)c1C#N,–,inconclusive: -35.4% [inhibitor]
COc1ccc(C(=O)NC2CCCc3ccccc32)cc1S(=O)(=O)N1CCOCC1 (configuration not stated),"inconclusive: 20.6 µM [inhibitor, partial curve, poor fit]",–
COCCCNC(=O)C1CCN(C(=O)c2cc3sccc3n2Cc2ccc(Cl)cc2)CC1,active: 20.6 µM,–
COc1c(C)cc(C(O)c2ncc(-c3ccc4ccccc4c3)[nH]2)cc1C (configuration not stated),"inconclusive: 18.4 µM [inhibitor, single point]",–
CCOc1ncccc1C(=O)Nc1ccc2c(c1)OCCCO2,"inconclusive: 18.4 µM [inhibitor, single point]",–
CCn1c(NCc2cc(OC)ccc2OC)nc2ccccc21,"inconclusive: 29.1 µM [inhibitor, single point]",–
Cc1cc(C)nc(N2CCC(C(=O)NC3CCCCCC3)CC2)n1,–,inconclusive: -35.3% [inhibitor]
O=[N+]([O-])c1cc(-c2nc(-c3ccncc3)no2)ccc1Cl,"inconclusive: 14.6 µM [inhibitor, partial curve, poor fit]",–
O=C(NCc1cccnc1)c1cc(C2CCCCN2S(=O)(=O)Cc2ccccc2)on1 (configuration not stated),inactive,–
CC1CN(Cc2c(O)ccc3c2oc(=O)c2ccccc23)CC(C)O1 (configuration not stated),active: 14.6 µM,–
CC1CCCN(C(=O)c2ccc3c(c2NCCO)C(=O)c2ccccc2C3=O)C1 (configuration not stated),"inconclusive: 23.1 µM [inhibitor, single point]",–
CCOc1cc(/C=C/C(=O)OCC(=O)NCC2CCCO2)cc(Cl)c1OC (configuration not stated),inactive,–
CC(C)Cn1c(N)c(C(=O)CSc2nccn2C)c(=O)n(C)c1=O,"inconclusive: 16.4 µM [inhibitor, single point]",–
O=C(c1ccco1)N1CCN(C(=S)Nc2cc(F)cc(F)c2)CC1,inactive,–
O=C1C[C@@H]2c3c(cccc3CN1Cc1ccccc1Cl)C[C@@H](O)[C@H]2O,inactive,–
CC1=C(C(=O)Nc2ccccc2)C(c2ccco2)C(C#N)=C(SCC(=O)OC(C)C)N1 (configuration not stated),"inconclusive: 29.1 µM [inhibitor, single point]",–
COc1cccc(NC(=O)C(Cc2ccccc2)NC(=O)C2CCC(C)CC2)c1 (configuration not stated),"inconclusive: 16.4 µM [inhibitor, partial curve, poor fit]",–
CCNC(=O)c1c(O)c2c([nH]c1=O)CCCC2,inactive,–
COc1cccc(C(=O)Nc2ccc(C(=O)OCc3cc(=O)n4cc(C)sc4n3)cc2)c1,"inconclusive: 23.1 µM [inhibitor, single point]",–

Compound,Potency,"activity change, negative = growth inhibition"
Cc1nc2c(C(=O)NCCc3ccccc3)c[nH]n2c(=O)c1Cc1ccccc1F,"inconclusive: 23.1 µM [inhibitor, single point]",–
O=C(Nc1nnc(S(=O)(=O)N2CCOCC2)s1)c1cccc(Br)c1,"inconclusive: 23.1 µM [inhibitor, single point] and inconclusive: 13 µM [inhibitor, partial curve]",–
CCCCc1cc(=O)oc2cc(C)cc(OC(C)C(=O)NCc3ccccn3)c12 (configuration not stated),"inconclusive: 18.4 µM [inhibitor, partial curve]",–
O=S(=O)(c1ccc(Cl)cc1)N1CCC(c2ccncc2)CC1,"inconclusive: 2.59 µM [inhibitor, full curve]",–
CN(C)c1ccc(-c2ccnc3c2CC(C)(C(=O)Nc2cccc(Oc4ccccc4)c2)O3)cc1 (configuration not stated),inactive,–
O=S(=O)(c1ccc(Br)cc1)N1CCC(c2nc3ccccc3[nH]2)CC1,active: 20.6 µM,–
Cc1cccc(NC(=O)COC(=O)c2nn(-c3ccccc3C(F)(F)F)cc2O)c1C,inactive,–
Cc1ccc(C2(C)NC(=O)N(CC(=O)Nc3ccccc3C(=O)N3CCCCC3)C2=O)cc1 (configuration not stated),inactive,–
C=CCn1c(C(C)NC(=O)C(C)(C)C)nc2ccccc21 (configuration not stated),inactive,–
COc1cc(NS(=O)(=O)c2cc3c(cc2C)n(C)c(=O)c(=O)n3C)cc(OC)c1,"inconclusive: 18.4 µM [inhibitor, single point]",–
COc1ccc(C(=O)Nc2c(C)ccc3nsnc23)cc1[N+](=O)[O-],inactive,–
O=c1cc(-c2ccc(O)cc2)oc2ccccc12,"inconclusive: 29.1 µM [inhibitor, single point]",–
Cc1ccc(OCCNC(=O)c2ccccc2OCc2c(C)noc2C)cc1,"inconclusive: 29.1 µM [inhibitor, single point]",–
CN(CC(=O)Nc1ccc(Cl)c(S(=O)(=O)N(C)C)c1)Cc1ccccc1,"inconclusive: 16.4 µM [inhibitor, partial curve]",–
NC(=O)c1ccsc1NC(=O)CSc1nnc(NC2CC2)s1,inactive,–
O=C(N/N=C/c1cccs1)c1ccc(-n2cccc2)cc1,"inconclusive: 6.51 µM [inhibitor, partial curve]",–
CCOC(=O)Nc1nc(-c2ccc(Cl)cc2Cl)cs1,active: 10.3 µM,–
CN(C)CCCNC(=O)c1cc(C(=O)c2c(Cl)cccc2Cl)c[nH]1,inactive,–
O=C(CN1CCCCCC1)Nc1ccccc1C(=O)Nc1ccccc1,"inconclusive: 20.6 µM [inhibitor, single point]",–
CCOc1ccc2nc(NC(=O)Nc3cccs3)sc2c1,"inconclusive: 23.1 µM [inhibitor, single point]",–
Cc1cccc(S(=O)(=O)C(C#N)c2nc3ccccc3nc2N2CCOCC2)c1 (configuration not stated),"inconclusive: 29.1 µM [inhibitor, single point]",–
N#CC1=C(N)OC2=C(CC/C2=C\c2ccccc2Cl)C1c1ccccc1Cl (configuration not stated),active: 20.6 µM,–
Cc1ccc(OCC(=O)NC(C)c2ccc(Cl)c(Cl)c2)c([N+](=O)[O-])n1 (configuration not stated),"inconclusive: 16.4 µM [inhibitor, single point]",–
Cc1[nH]c2ccccc2c1/C=N/NC(=S)NCc1ccccc1,"inconclusive: 29.1 µM [inhibitor, partial curve, poor fit]",–
